# Measurements taken from PubChem BioAssay AID1508623 (National Center for Advancing Translational Sciences (NCATS), 2021).
# Among all 48,000 compounds or so, about 450 (0.94%) were called active. Another 19% or so got no clear call; they are omitted. The call rests on the fitted dose curve; in most records, active means well fitted inhibition curve with a large enough effect; inconclusive means small, poorly fitted or top-dose-only effect; inactive means no such curve, though single readings can be large or run the other way. This is one part of the list.
# Test: Primary qHTS for Identification of Small Molecule Inhibitors of Huntingtin Promoter Activity; further: nearly all actives have a fitted effect of over 50% in size
# Settings: HEK293 HTT promoter firefly luciferase reporter (activity 0% = vehicle and -100% = no light), 24 h; series mostly up to 57.5 µM; activity change, negative = inhibition: at the top concentration
# Procedure, shortened: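 Luminescence was read after Dual-Glo reagent and a 10 min room-temperature incubation. Values were normalized to vehicle (0% activity) and zero RLU (-100% activity). Reporter HEK293 cells had been exposed to compounds (up to 57.5 uM final) for 24 h.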
# Potency means the concentration at half of the fitted maximal effect.
Structure (SMILES),"activity change, negative = inhibition",Potency
CC(=O)OCC1=C(C(=O)O)N2C(=O)[C@@H](NC(=O)CSc3ccncc3)[C@H]2SC1,inactive: -3.26%,–
CCCn1c(=O)c2sccc2n2c(CCCC(=O)N3CCN(c4ccccc4OC)CC3)nnc12,inactive: -8.46%,–
Cc1ccc2c(=O)cc(C(=O)Nc3sc4c(c3C(=O)NCc3ccco3)CCC4)oc2c1,inactive: -2.72% [at 11.5 µM],–
NC1CCC(Nc2nc(Nc3ccc(C(=O)N4CCCCC4)cc3)c3ncn(-c4cccc(F)c4)c3n2)CC1 (stereo unspecified),inactive: 4.05%,–
O=C(NCc1ccccc1F)C1CCN(c2nnc(-n3cccc3)s2)CC1,inactive: -14.3%,–
COc1ccccc1NC(=O)CSc1nnc(-c2ccccc2C)o1,inactive: 60.3%,–
COc1cc(NC(=O)CCc2c(C)nn(-c3ccc(N4CCOCC4)nn3)c2C)cc(OC)c1OC,inactive: -5.82%,–
COc1ccc2c(c1)c(=O)c(C(=O)c1ccccc1)cn2CC(=O)Nc1ccc2c(c1)OCCO2,inactive: -14.2%,–
O=C(NCC(c1ccc(Cl)cc1)N1CCOCC1)c1ccccc1F (stereo unspecified),inactive: -12%,–
CCS(=O)(=O)CCn1c([N+](=O)[O-])cnc1C,inactive: 1.11%,–
COc1cccc(C2CC(=O)Nc3c2c(=O)[nH]c2nc4ccccc4n32)c1 (stereo unspecified),inactive: -5.34%,–
O=C1CCc2cc(OCCCCc3nnnn3C3CCCCC3)ccc2N1,inactive,–
O=C(COc1ccc([N+](=O)[O-])cc1)Nc1nc2c(s1)CCCC2,inactive: -13%,–
CCc1ccc(NC(=O)Cn2c(=O)n(CCCCC(=O)NCCc3ccc(Cl)cc3)c(=O)c3ccccc32)cc1,inactive: -2.66%,–
Cc1ccc2ncc(C(=O)Nc3ccc(OC(F)(F)F)cc3)c(=O)n2c1,inactive: -23%,–
O=c1[nH]c2ccc(NCc3ccc(-c4ccc(Br)cc4)o3)cc2[nH]1,inactive: -24.6%,–
COc1cc(OC)cc(-c2nc(-c3ccc4c(c3)[nH]c(=O)n4C)no2)c1,inactive: -6.85%,–
Cc1ccc(-c2cc(C(=O)NCc3ccccc3Cl)c3ccccc3n2)cc1C,inactive: -6.9%,–
O=C(Nc1ccccc1C(F)(F)F)n1ncc2cc(Cl)ccc21,inactive: -3.21%,–
COc1ccc2cc3c(N)nn(C(=O)c4ccc(OC)c(OC)c4)c3nc2c1,inactive: 7.15%,–
CCOC(=O)c1[nH]c2ccccc2c1NC(=O)c1ccc(Br)cc1,inactive: -6.19%,–
COc1cccc(CNC(=O)C2CCN(S(=O)(=O)c3ccc4c(c3)CCCN4C(C)=O)CC2)c1,inactive: -8.53%,–
CCCCOc1cc(C(=O)NCCN(CC)CC)c2ccccc2n1,inactive: -7.47%,–
CCOc1ccc(-c2nc3c(c(SCC(=O)N4CCCCC4)n2)Cc2cccc(OC)c2O3)cc1,inactive: -10.6%,–

Structure (SMILES),"activity change, negative = inhibition",Potency
CCCn1c2ccccc2c2cnn(CC(=O)N3CCN(c4ccccc4)CC3)c(=O)c21,inactive: -10.1%,–
Cc1cccc(CSc2ncc(Cl)c(C(=O)Nc3nc4ccc(F)cc4s3)n2)c1,inactive: 3.34%,–
Cc1ccc2nc3c(cc(C#N)c(=O)n3-c3nnc(SCc4ccccc4)s3)c(=O)n2c1,inactive: 12.4%,–
CCOc1ccc(NC(=O)c2ncoc2-c2ccco2)cc1,inactive: 52.5%,–
O=C(Cn1c(=O)nc(-c2ccccc2)c2cc(Cl)ccc21)Nc1ccc(F)c(Cl)c1,inactive: -15.1%,–
COc1cccc(CNC(=O)c2ccc(-n3c(C)cc4c3CCC(C)C4)cc2)c1 (stereo unspecified),inactive: 12.5%,–
CCOc1cc(C#N)c(NC(=O)Cn2nnc(-c3ccc(C)cc3)n2)cc1OCC,inactive: -21%,–
COc1ccccc1OC(C)C(=O)Nc1cccc(-c2nc3ccccc3o2)c1 (stereo unspecified),inactive: 2.95%,–
CCCSc1nc2c([nH]c3ccccc32)c(=O)n1C,inactive: -2.32%,–
O=C(NCc1cccnc1)c1nn(-c2ccc(F)cc2)nc1CO,inactive: -19%,–
CCc1ccc(NS(=O)(=O)c2ccc3[nH]cc(C(=O)NCCCOC(C)C)c(=O)c3c2)cc1,inactive: -15.5%,–
Cc1ccc(Cl)cc1N1CCN(S(=O)(=O)c2ccc3c(c2)CCN3C(=O)C2CCC2)CC1,inactive: -7.14%,–
Cc1coc2c1C(=O)C(=O)c1c-2ccc2c(C)cccc12,inactive: -6.22%,–
COc1ccc(NC(=O)c2oc3ccccc3c2NC(=O)COc2ccc(C(C)C)cc2)c(OC)c1,inactive: -11%,–
O=C(Nc1ccccc1Cl)c1sc2cccc(Cl)c2c1Cl,inactive: 16.1%,–
Cc1ccc(N(CC(=O)Nc2ccc(Cl)cc2)S(=O)(=O)c2cccc3nonc23)cc1,inactive: -14%,–
COc1cccc(NC(=O)Cn2c(=O)n(Cc3ccccc3)c(=O)c3ccccc32)c1,inactive: -19.3%,–
CCSc1nc2n(n1)C(c1ccc(C(=O)O)cc1)C(C(=O)Nc1ccccc1C)=C(C)N2 (stereo unspecified),inactive: 5.37%,–
COc1ccc(-c2nc3c(c(SCC(=O)N4CCCCC4)n2)Cc2cc(Cl)ccc2O3)cc1,inactive: -9.44%,–
CCCS(=O)(=O)c1nc(S(=O)(=O)c2ccc(C)cc2)c(NC)s1,inactive: -16.9%,–
Cc1ccc(-n2ncc(C(=O)N3CCCCC3)c2C2CCN(C(=O)OC(C)(C)C)CC2)c(C)c1,inactive: -19.1%,–
CCOC(=O)c1c(NC(=O)c2ccc(OC)cc2)sc2c1CCCCC2,inactive: -6.86% [at 11.5 µM],–
O=C(COc1ccccc1)Nc1ccc2nc(SCC(=O)N3CCOCC3)sc2c1,inactive: -19.2%,–
O=C(O)c1ccccc1-c1ccc(C(F)(F)F)cc1,inactive: 9.19%,–

Structure (SMILES),"activity change, negative = inhibition",Potency
Cc1ccc(CSc2nnc3[nH]c(=O)cc(-c4ccccc4)n23)cc1,inactive: -6.1%,–
O=C(CSc1nnc(-c2ccc(F)cc2)o1)N1CCCc2ccccc21,inactive: -20.8%,–
O=C(CCC1N=C2c3ccccc3N=C(SCc3ccc(Cl)cc3)N2C1=O)N1CCN(c2ccccc2)CC1 (stereo unspecified),inactive: 3.19%,–
COc1ccc(N2CCN(CCCNC(=O)Nc3ccccc3)CC2)cc1,inactive: -1.7%,–
COC(=O)c1sccc1S(=O)(=O)N(CC(=O)NCc1ccc(C)cc1)c1ccc(C)cc1,inactive: -18.7%,–
COc1ccc(NC(=O)CCCn2nc(C)c3sc4ccccc4c3c2=O)cc1,inactive: 3.92%,–
COc1ccc(S(=O)(=O)NCCSc2nnnn2-c2ccccc2)cc1,inactive: -12.5%,–
COc1ccc(-c2nc(CSCC(=O)N3CCN(c4ccc(F)cc4)CC3)c(C)o2)cc1,–,active: 12.6 µM
CCN(Cc1ccccc1)S(=O)(=O)c1ccc(-c2coc(C)n2)cc1,inactive: -24.6%,–
Cc1cc(-n2c(C)nc3ccccc3c2=O)ccc1NC(=O)C(F)(F)F,inactive: -0.0316%,–
Fc1ccc(C2=CC(c3ccc(F)cc3)n3c(nc4ccccc43)N2)cc1 (stereo unspecified),inactive: 46.2%,–
O=C(Cn1ncc2c3ccccc3n(Cc3ccc(F)cc3)c2c1=O)NCc1cccs1,inactive: -8.04%,–
CC(CNC(=O)c1ccc2nc(Cc3ccccc3)oc2c1)c1ccccc1 (stereo unspecified),inactive: -30.6%,–
CC1CCCN(S(=O)(=O)c2ccc3c(c2)CCN3C(=O)CCC(=O)O)C1 (stereo unspecified),inactive: -1.71%,–
CCC(C)Nc1ncnc2c1cnn2-c1ccc(F)cc1 (stereo unspecified),inactive: 38.9%,–
Cc1cc(C(=O)Nc2ccc(-n3c(C)nc4ccccc4c3=O)cc2)ccc1[N+](=O)[O-],inactive: -30%,–
Cc1ccc2c(=O)cc(C(=O)Nc3ccc(S(=O)(=O)Nc4onc(C)c4C)cc3)oc2c1C,inactive: -3.35%,–
O=C(CSc1oc(-c2ccccc2)nc1S(=O)(=O)c1ccc(Cl)cc1)c1ccccc1,inactive: -23.6%,–
Cc1ccc(-n2cc(C(=O)Oc3ccc(F)cc3)c3ccccc3c2=O)cc1,inactive: -15%,–
Cc1[nH]c(C=C2C(=O)Nc3ccc(S(=O)(=O)N(C)c4cccc(Cl)c4)cc32)c(C)c1C(=O)N1CCN(C)CC1,inactive: -19.5%,–
CCN(C(=O)Cn1c(=O)n(-c2ccccc2)c(=O)c2ccc(C(=O)NCc3ccc4c(c3)OCO4)cc21)c1cccc(C)c1,inactive: -6.8%,–
Cc1cc(C)cc(OCC(=O)Nc2c(C(=O)c3ccccc3)oc3ccccc23)c1,inactive: 0%,–
O=C(CCn1c(=O)c2cccn2c2cccnc21)Nc1ccccc1C(F)(F)F,inactive: 3.8%,–
CCC(=O)N1c2ccccc2CC1C(=O)NCc1cc(OC)ccc1OC (stereo unspecified),inactive: 10%,–

Structure (SMILES),"activity change, negative = inhibition",Potency
CCCCn1cnc2cc(NCc3ccc(OCC)cc3)ccc21,inactive: 7.37%,–
CCCCCCCCCCCCSCCOCCO,inactive: 2.71%,–
O=C(CCC(=O)c1ccc(F)cc1)Nc1ccc(Cl)cc1,inactive: -3.94%,–
CCn1cc(S(=O)(=O)c2cccc(C)c2)c(=O)c2cc(F)c(N3CCCC(C)C3)cc21 (stereo unspecified),inactive: -12%,–
CCOc1ccc(CNC(=O)C2CCCCN2S(=O)(=O)c2ccc(F)cc2)cc1OC (stereo unspecified),inactive: -23.8% [at 11.5 µM],–
COc1ccc(-c2nc3c(c(SC)n2)Cc2c(CO)cnc(C)c2O3)cc1,inactive: -15.5%,–
CCn1c(=O)c2cc(C(=O)NCCCN3CCN(C)CC3)sc2c2ccccc21,inactive: 17.6%,–
O=C(CSc1n[nH]c(-c2ccccc2Cl)n1)NCc1ccc(F)cc1,inactive: -12.4%,–
Cc1ccc(Nc2c(-c3ccc(Br)o3)nc3ccccn23)cc1,inactive: 0.686%,–
COc1ccc(S(=O)(=O)NCc2nc3nc(C)cc(C)n3n2)cc1,inactive: 6.14%,–
CCC(=O)Oc1c(Sc2ccc(Cl)cc2)c(C)nn1-c1ccccc1,inactive: -25.4%,–
Cc1ccc(Cl)cc1N1CCN(C(=O)Cn2ncc3c4ccccc4n(C)c3c2=O)CC1,inactive: 21.5%,–
CCOc1ccc(NC(=O)CSC2=Nc3ccccc3C3=NC(CCC(=O)NCc4ccco4)C(=O)N23)cc1 (stereo unspecified),inactive: 15.7%,–
Cc1ccc(-c2nc(CS(=O)(=O)CC(=O)Nc3ccc(Br)cc3F)c(C)o2)cc1,inactive: -12.5%,–
Cc1cc(Cl)ccc1NS(=O)(=O)c1c(C(=O)N2CCC(C)CC2)c(C)n(C)c1C,inactive: -32.1%,–
CC1CCCN(c2nc3c(-c4ccc(Cl)cc4)nnn3c3ccccc23)C1 (stereo unspecified),inactive: -20.1%,–
COc1ccc2oc(=O)c(-c3nnc(-c4ccc(C)cc4)o3)cc2c1,inactive: -14.3%,–
CCN(CC)S(=O)(=O)c1ccc2c(c1)N(CC(=O)NCc1ccccc1)C(=O)C1CCCCN21 (stereo unspecified),inactive: -23.7%,–
O=C(NCCc1csc(-c2cccnc2)n1)c1cccc(Cl)c1,inactive: -33.7%,–
Cc1ccc2ncc(C(=O)c3ccc(C)c(C)c3)c(S(=O)(=O)c3ccc(F)cc3)c2c1,inactive: -25.7%,–
Cc1c(C)n(CCN(C)C)c2ccc(C(=O)OCCN(C)C)cc12,inactive: 4.27%,–
Cc1ccccc1Cn1c(SCc2ccc(C(=O)NC3CCCCC3)cc2)nc2ccncc21,inactive: -8.36%,–
Cc1nc(SCc2cccc(Cl)c2)nc2c1CCCC2,inactive: -7.21% [at 11.5 µM],–
CC(C)N(Cc1nc(-c2ccc(Cl)cc2)no1)C(=O)c1ccc(C(C)(C)C)cc1,inactive: -5.84%,–
